Results: the supplement of paper PMC3334620
In all, about 33,000 sequences were measured (“E-score (-0.5 to 0.5)”: median about -0.035, highest 2% from about 0.35 on). Some of the results follow.

Each sequence was assayed against T1, Pdr3 (UniProt P33200) (assay: PBM E-score (8-mer binding enrichment) (E-score (-0.5 to 0.5)); higher = stronger / more preferred TF binding; most listed sequences are background and not binding sites). Details: protein concentration: 200 nM; construct: GST-full length.
T1 sequence: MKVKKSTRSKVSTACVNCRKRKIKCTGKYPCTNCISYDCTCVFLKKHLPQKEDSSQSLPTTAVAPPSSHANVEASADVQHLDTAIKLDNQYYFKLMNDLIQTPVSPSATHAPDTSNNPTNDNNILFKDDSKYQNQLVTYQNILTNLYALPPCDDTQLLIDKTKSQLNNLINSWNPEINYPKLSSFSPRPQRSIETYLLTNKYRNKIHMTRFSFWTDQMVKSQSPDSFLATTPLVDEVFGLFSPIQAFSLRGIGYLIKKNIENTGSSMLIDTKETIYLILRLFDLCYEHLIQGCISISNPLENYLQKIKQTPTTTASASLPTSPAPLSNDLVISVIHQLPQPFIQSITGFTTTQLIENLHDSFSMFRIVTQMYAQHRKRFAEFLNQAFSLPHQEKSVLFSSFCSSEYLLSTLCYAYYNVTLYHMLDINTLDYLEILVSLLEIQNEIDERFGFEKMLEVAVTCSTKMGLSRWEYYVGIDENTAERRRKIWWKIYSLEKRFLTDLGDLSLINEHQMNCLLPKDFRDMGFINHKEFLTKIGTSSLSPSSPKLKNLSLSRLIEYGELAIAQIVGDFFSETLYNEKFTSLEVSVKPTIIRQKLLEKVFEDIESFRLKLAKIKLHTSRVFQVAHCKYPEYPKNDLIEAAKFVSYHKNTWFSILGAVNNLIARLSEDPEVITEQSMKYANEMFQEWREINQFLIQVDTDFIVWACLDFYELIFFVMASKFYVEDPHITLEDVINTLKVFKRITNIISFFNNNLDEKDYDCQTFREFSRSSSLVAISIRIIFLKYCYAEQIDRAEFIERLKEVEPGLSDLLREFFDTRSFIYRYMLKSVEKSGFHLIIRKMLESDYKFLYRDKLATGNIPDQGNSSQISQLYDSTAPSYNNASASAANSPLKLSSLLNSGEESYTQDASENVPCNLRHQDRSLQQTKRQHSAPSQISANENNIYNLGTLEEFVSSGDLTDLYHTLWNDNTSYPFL
Experimental: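 Universal 'all 10-mer' protein binding microarrays (Agilent AMADID 015681) probed with GST-tagged S. cerevisiae TFs (full-length or DBD) made by in vitro transcription/translation (PURExpress), about 100-200 nM. Bound TF was detected with fluorescent anti-GST. Each ungapped 8-mer (which stands for itself and its reverse complement) is scored by the PBM enrichment score (E-score), a modified Wilcoxon-Mann-Whitney statistic from -0.5 to +0.5, computed with the Universal PBM Analysis Suite. Scale: above 0.35 generally sequence-specific binding.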

In order of falling “PBM E-score” value:
1. GTCGGAAC  0.458
2. ATCGGAAT  0.43
3. CCGAATCC  0.336
4. AAGGTCCG  0.327
5. CGGCGGGA  0.312
6. GCATCCGC  0.277
7. CCCTCCGG  0.265
8. ATCCGACG  0.259
9. CTCCGCGA  0.258
10. CAGTTTCC  0.253
11. CCGCAGCC  0.238
12. ACTTCCAT  0.231
13. GGGATAAA  0.202
14. ATACTGCA  0.188
15. GATCTCGA  0.173
16. ATCTCACC  0.159
17. GAGCCGCC  0.153
18. AGGATCCC  0.152
19. CCGTTCGC  0.15
20. GTTCGCGA  0.148
21. CGACCTTC  0.14
22. CGCGCATA  0.136
23. CGCTCGCC  0.129
24. GGAGATAA  0.128
25. CTGTATTC  0.124
26. AGGAACCG  0.123
27. GATCGTAC  0.121
28. GGACGGTA  0.118
29. CGCCACTC  0.114
30. ATCGGCCC  0.113
31. ACCACCTC  0.11
32. AGTCTCGG  0.101
33. ATGGGTCG  0.0962
34. CGGCCAAG  0.088
35. AAGAGATT  0.0875
36. ACTTTAAG  0.0833
37. GGAGGGTA  0.0832
38. TCGTATAA  0.0828
39. CACGCCCA  0.0821
40. ACGAACTC  0.0779
41. ACGCTAAT  0.073
42. AACACATC  0.073
43. CTTATATC  0.0726
44. GCGACGAA  0.0699
45. GAGGTGCA  0.0693
46. GGCCGAAC  0.068
47. CTAGCTTC  0.0676
48. AGTTATAC  0.0638
49. CCGCACGC  0.0615
50. ACAGTGCT  0.0599
51. ACTGGCAG  0.055
52. GGTCAAAC  0.0507
53. ACATAAGG  0.0436
54. CCTAATCA  0.0425
55. CCATTGCC  0.035
56. AAGCAACC  0.0343
57. ACTGGATC  0.0322
58. CCGATGAG  0.0296
59. CCCTCGCA  0.0287
60. GAGAGCAA  0.0278
61. AAGCAATG  0.0274
62. CGACAGCA  0.0259
63. ATATGTCG  0.0248
64. AAAGCGCC  0.0235
65. CGTCGAAA  0.0208
66. GGTCAACC  0.0182
67. AATTTTGG  0.0167
68. CACTCACC  0.0163
69. AGATCCCC  0.015
70. AATATACA  0.0145
71. ATTTAAAC  0.0115
72. ACCGAGAC  0.0101
73. CGCCAGTA  0.00965
74. CTATCCAC  0.0063
75. AGAGAAAT  0.00629
76. AGATAATA  0.00528
77. ATGTCCCC  0.00109
78. CCTCACTA  -0.00189
79. AAATGAAT  -0.00342
80. CACGCGAC  -0.00486
81. ATAGTGCC  -0.00647
82. CCTCTGGA  -0.00689
83. CAGATCAG  -0.00717
84. GTCGCATA  -0.0109
85. ACCTTGAC  -0.0123
86. GCATGTGA  -0.013
87. AGAAGAAT  -0.015
88. GCAACTGA  -0.0168
89. ACCTGAGT  -0.0183
90. GATTCGCC  -0.0193
91. AGCTTTAA  -0.0198
92. AGCCCATG  -0.0226
93. AAGGAATA  -0.0227
94. CGGCGTAA  -0.0269
95. CTCATACA  -0.0276
96. ATACGCCA  -0.0314
97. GGTGGTGA  -0.032
98. TAATGGCA  -0.0322
99. AGATACAG  -0.033
100. AATTCCAA  -0.0365
101. AGCCCTAA  -0.0383
102. GAATCGTA  -0.043
103. CGTGTTCA  -0.0434
104. ACACACGA  -0.0441
105. CATTGACC  -0.0462
106. GCATGTCA  -0.0508
107. ACATCCTC  -0.0656
108. CAGGACGG  -0.0667
109. CCCTTGTC  -0.068
110. ACGAGTAC  -0.0719
111. CAACCGTG  -0.0744
112. GAGGTGAA  -0.0763
113. AAATAACC  -0.0781
114. GCTTCAAC  -0.0825
115. CCAAAGAG  -0.0866
116. CGTTCCTA  -0.0878
117. GGTTACTA  -0.0887
118. AGGACGAT  -0.0922
119. AGTCACTG  -0.0973
120. GCTCAGAA  -0.0989
121. TATTAGGA  -0.0995
122. GGGTCCTA  -0.103
123. GGGTAGAC  -0.106
124. AGATTACA  -0.107
125. CACATAAC  -0.108
126. GGCTGGAC  -0.109
127. CTCTTAAA  -0.111
128. AGTTGAAG  -0.118
129. ATGGCATA  -0.119
130. TTGGCAAA  -0.121
131. AAACAGAA  -0.123
132. CCTTTTGC  -0.126
133. GCTAAACC  -0.128
134. AACATTTG  -0.13
135. AGGCCTTC  -0.132
136. CTCCTTAA  -0.134
137. ATTACTTC  -0.139
138. AACTGACG  -0.139
139. ACACCCTA  -0.144
140. ACCTTACA  -0.145
141. TGGCCAAA  -0.152
142. CGACTATA  -0.153
143. ACGTAAAA  -0.153
144. GCCTGTCA  -0.155
145. CTGTCCCA  -0.156
146. ATCTCAAT  -0.158
147. GACATGCA  -0.163
148. AGAGCGCT  -0.163
149. CCCTACAA  -0.164
150. CCCACATC  -0.167
151. AAGGCTCT  -0.173
152. ACCATGAT  -0.178
153. GCTCAAGA  -0.178
154. CTCGTCAA  -0.18
155. CCTCAGCC  -0.181
156. CTTCCAGA  -0.184
157. CTCTTGCA  -0.186
158. GCTCCTAA  -0.188
159. CTAGTCAA  -0.196
160. ACACGCAG  -0.196
161. TAACCTTA  -0.199
162. ACGCCTGC  -0.201
163. AAACGTGG  -0.217
164. AGTCTCCA  -0.222
165. ACTAAGAC  -0.224
166. AGGATAGA  -0.225
167. GGTGTGTA  -0.238
168. AGTCCCCC  -0.246
169. CCTTTAAA  -0.252
170. CCTTTGGA  -0.259
171. TAAGGCTA  -0.326
172. AGAGGAGG  -0.337
